Results on 27 molecules are retold here after the antibiotic and cytotoxicity screens of Wong et al. (2023).

One assay deals with HSkMC. Briefly: cytotoxicity call (relative viability < 0.9). The following applies: 10 µM.
Another assay concerns HepG2. Description: cytotoxicity call (relative viability < 0.9). The following applies: 10 µM.
A further assay has as its system S. aureus RN4220. Description: growth inhibition call (relative growth <= 0.2). The following applies: 50 µM.

The other results are listed elsewhere or left out.

Take `COc1ccc(NC(=O)N(C)C[C@H]2Oc3c(NC(=O)c4cc(C)nn4C)cccc3C(=O)N([C@H](C)CO)C[C@H]2C)cc1`: the cytotoxicity call in the assay with HSkMC and in the assay with HepG2 was “inactive” each time. In addition, the growth inhibition call in the assay on S. aureus RN4220 was “inactive”.

With `Cc1ccc(S(=O)(=O)N(C)C[C@H]2Oc3c(NC(=O)C4CC4)cccc3C(=O)N([C@H](C)CO)C[C@H]2C)cc1`, the cytotoxicity call with HSkMC and in the assay with HepG2 was “inactive” throughout. In the assay with S. aureus RN4220, the growth inhibition call was “inactive”.

For `C[C@@H]1CN([C@@H](C)CO)C(=O)c2cccc(NS(C)(=O)=O)c2O[C@@H]1CN(C)C(=O)Nc1ccc2c(c1)OCO2`, the cytotoxicity call with HSkMC and with HepG2 was “inactive” throughout. The growth inhibition call in the assay on S. aureus RN4220 is “inactive”.

As for `O=C(C[C@H]1C=C[C@H](NC(=O)CN2CCOCC2)[C@@H](CO)O1)NC1CCC1`, the cytotoxicity call in the assay with HSkMC and in the assay with HepG2 was “inactive” in each case. Besides, in the assay with S. aureus RN4220, the growth inhibition call is “inactive”.

For the molecule `Cc1ccc(S(=O)(=O)N(C)C[C@H]2Oc3ccc(NC(=O)c4ccncc4)cc3C(=O)N([C@H](C)CO)C[C@H]2C)cc1`, the cytotoxicity call with HSkMC and in the assay on HepG2 was “inactive” in each case. Besides, the growth inhibition call in the assay with S. aureus RN4220 was “inactive”.

For `C[C@@H]1CN([C@@H](C)CO)C(=O)c2cc(NC(=O)Nc3cccc4ccccc34)ccc2O[C@@H](C)CCCCO[C@H]1CN(C)Cc1ccncc1`, the cytotoxicity call in the assay on HSkMC and with HepG2 was “inactive” each time. The growth inhibition call with S. aureus RN4220 was “inactive”.

Turning to `CC[C@@H](C)[C@H]1O[C@@]2(CC[C@@H]1C)C[C@H]1C[C@@H](CC=C(C)[C@@H](O[C@H]3C[C@@H](OC)[C@@H](O[C@H]4C[C@@H](OC)[C@@H](O)[C@@H](C)O4)[C@@H](C)O3)[C@@H](C)C=CC=C3CO[C@H]4[C@@H](O)C(C)=C[C@@H](C(=O)O1)[C@]34O)O2.CO[C@H]1C[C@@H](O[C@@H]2[C@@H](OC)C[C@@H](O[C@@H]3C(C)=CC[C@@H]4C[C@@H](C[C@@]5(CC[C@@H](C)[C@H](C(C)C)O5)O4)OC(=O)[C@@H]4C=C(C)[C@H](O)[C@@H]5OCC(=CC=C[C@@H]3C)[C@@]45O)O[C@@H]2C)O[C@@H](C)[C@@H]1O`, the cytotoxicity call in the assay on HSkMC and with HepG2 was “active” throughout. In addition, the growth inhibition call in the assay with S. aureus RN4220 was “inactive”.

With `Cc1ccccc1S(=O)(=O)N1C[C@H](O)COC[C@@H]2O[C@@H](CC(=O)N3CCC(Cc4ccccc4)CC3)CC[C@H]21`, the cytotoxicity call in the assay on HSkMC and with HepG2 was “inactive” each time. Further, the growth inhibition call with S. aureus RN4220 is “inactive”.

Consider `COCC#Cc1ccc2c(c1)O[C@H](CN(C)C(=O)c1ccccc1)[C@@H](C)CN([C@@H](C)CO)S2(=O)=O`, for which the cytotoxicity call in the assay with HSkMC and with HepG2 was “inactive” throughout. Besides, in the assay on S. aureus RN4220, the growth inhibition call was “inactive”.

`COc1cccc(NC(=O)N(C)C[C@H]2Oc3cc(C#Cc4ccncc4)ccc3S(=O)(=O)N([C@H](C)CO)C[C@H]2C)c1`: in the assay with HSkMC, the cytotoxicity call was “inactive”. For the same molecule, the cytotoxicity call in the assay with HepG2 was “active”. Moreover, the growth inhibition call in the assay on S. aureus RN4220 is “inactive”.

As to `COc1ccc(-c2oc3cc(O[C@H]4O[C@H](CO)[C@@H](O)[C@H](O)[C@H]4O)c(OC)c(O)c3c(=O)c2OC)cc1O`, the cytotoxicity call in the assay on HSkMC and with HepG2 was “inactive” each time. Moreover, the growth inhibition call in the assay on S. aureus RN4220 is “inactive”.

`CNC(=O)C[C@@H]1CC[C@@H]2[C@H](COc3ccc(NC(=O)c4ccc(C(F)(F)F)cc4)cc3C(=O)N2C)O1`: the cytotoxicity call with HSkMC and with HepG2 was “inactive” each time. Besides, in the assay with S. aureus RN4220, the growth inhibition call was “inactive”.

In the case of `S=c1[nH]c2ccccc2s1`, the cytotoxicity call in the assay on HSkMC and with HepG2 was “inactive” throughout. Also, in the assay on S. aureus RN4220, the growth inhibition call is “inactive”.

As to `C#CCN(C)C1CCN(C(C)=O)CC1`, the cytotoxicity call in the assay on HSkMC and in the assay on HepG2 was “inactive” each time. Besides, the growth inhibition call in the assay on S. aureus RN4220 is “inactive”.

Take `CCOC(=O)c1c(C)cc(O)c(C=O)c1O`: the cytotoxicity call in the assay with HSkMC and in the assay with HepG2 was “inactive” each time. For the same molecule, the growth inhibition call in the assay on S. aureus RN4220 was “active”.

Consider `C[C@H](CO)N1C[C@H](C)[C@@H](CN(C)C(=O)Nc2ccc(C(F)(F)F)cc2)Oc2ccc(NC(=O)Cc3cn(C)c4ccccc34)cc2C1=O`, for which the cytotoxicity call in the assay on HSkMC and in the assay on HepG2 was “inactive” in each case. In addition, in the assay on S. aureus RN4220, the growth inhibition call was “inactive”.

As to `COc1ccc(S(=O)(=O)Nc2ccc3c(c2)C(=O)N([C@H](C)CO)C[C@@H](C)[C@H](CN(C)C(=O)Nc2ccc(C(F)(F)F)cc2)OCCCC[C@@H](C)O3)cc1`, the cytotoxicity call in the assay with HSkMC and in the assay on HepG2 was “inactive” each time. Besides, the growth inhibition call in the assay with S. aureus RN4220 was “inactive”.

In the case of `COc1ccc2c3c(n(c2c1)C)[C@H](CO)N(C[C@]13CCN(CC1)C(=O)Nc1ccc(cc1)F)C(=O)c1ccc(cc1)F`, the cytotoxicity call with HSkMC and in the assay with HepG2 was “inactive” in each case. Also, the growth inhibition call in the assay with S. aureus RN4220 was “inactive”.

In the case of `COC(=O)[C@@H](N)CS`, the cytotoxicity call in the assay with HSkMC and in the assay on HepG2 was “inactive” each time. The growth inhibition call in the assay on S. aureus RN4220 is “inactive”.

Turning to `C[C@H]1CN([C@@H](C)CO)C(=O)Cc2cc(NC(=O)Cn3cnnn3)ccc2O[C@@H]1CN(C)C(=O)Nc1ccc2c(c1)OCO2`, the cytotoxicity call in the assay with HSkMC and with HepG2 was “inactive” throughout. In the assay on S. aureus RN4220, the growth inhibition call was “inactive”.

Consider `N[C@H]1CCCN(Cc2ccc(F)cc2)C1`, for which the cytotoxicity call in the assay with HSkMC and in the assay on HepG2 was “inactive” in each case. The growth inhibition call in the assay on S. aureus RN4220 was “inactive”.

On to `C[C@@H]1CN([C@H](C)CO)C(=O)c2cc(-c3ccc(C(=O)N(C)C)cc3)cnc2O[C@H]1CN(C)C(=O)c1ccncc1`, for which the cytotoxicity call in the assay on HSkMC and in the assay on HepG2 was “inactive” throughout. In addition, in the assay with S. aureus RN4220, the growth inhibition call was “inactive”.

On to `Cc1noc(C)c1NC(=O)N(C)C[C@@H]1OCCCC[C@H](C)Oc2ccc(NC(=O)CCC(F)(F)F)cc2C(=O)N([C@H](C)CO)C[C@@H]1C`, for which the cytotoxicity call in the assay with HSkMC and in the assay on HepG2 was “inactive” throughout. In the assay on S. aureus RN4220, the growth inhibition call is “inactive”.

Regarding `O=C(CN1CCOCC1)NCC[C@H]1CC[C@@H](NC(=O)Nc2ccccc2)[C@@H](CO)O1`, the cytotoxicity call in the assay on HSkMC (human skeletal muscle cells) and in the assay with HepG2 was “inactive” each time. For the same molecule, the growth inhibition call in the assay on S. aureus RN4220 is “inactive”.

Regarding `CN(C)CC(=O)N[C@@H]1CC[C@@H](CCNC(=O)C2CC2)O[C@@H]1CO`, the cytotoxicity call in the assay with HSkMC and with HepG2 was “inactive” each time. Also, the growth inhibition call with S. aureus RN4220 is “inactive”.

`CC(C)N1C(=O)[C@@]2(Cc3ccccc31)c1ccccc1C(=O)N(Cc1ccccc1Cl)[C@H]2c1ccc(CO)cc1`: the cytotoxicity call with HSkMC and in the assay with HepG2 was “inactive” throughout. Also, the growth inhibition call in the assay on S. aureus RN4220 was “inactive”.

With `CC(=O)N1[C@@H]2c3ccc(-c4ccccc4)c(=O)n3C[C@H]1[C@H](CO)[C@H]2C(=O)NCCCN1CCOCC1`, the cytotoxicity call with HSkMC and with HepG2 was “inactive” throughout. In the assay with S. aureus RN4220, the growth inhibition call is “inactive”.
